± gives the standard deviation of the averaged measurements. This is one part of the list.
System: PfAP2-I AP2 domain 3 (GST-tagged)
Experiment: gcPBM binding intensity (ln(normalized median fluorescence intensity)); higher = stronger DNA binding
Method in brief: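 Alexa488 anti-GST antibody, scanned at 488 nm, detected GST-tagged P. falciparum DNA-binding domains that had been expressed in E. coli and incubated for 1 h on an Agilent 4 × 180k array. The array carried primer-extended double-stranded 36-bp intergenic genomic probes and negative controls. Binding intensity is the highest Masliner-normalised natural-log median intensity across replicate spots of either orientation of each probe.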

Row | Sequence | gcPBM binding intensity (ln)
1 | ATGTATTTAATAAGAACACACATATATTTAATTTAA [CACACA_site5606] | 7.54 ± 0.63
2 | TCTTTTTTTAATAAAACATGCAATATTATATATGTA [TGCATGCA_site236] | 7.79 ± 0.65
3 | GTAATTATTAATAAAACATGCGTATAAAATTTTCTC [TGCATGCA_site50] | 7.73 ± 0.51
4 | TAAATTCTTTAAAACTTTAAAACAAAAAAAAAAAAA [CACACA_negctrl_site1078] | 7.92 ± 0.93
5 | AAAAAAATATATATATATATATATATATATTTATAT [XGTACX_negctrl_site86] | 8.25 ± 0.48
6 | AAACAAAAAATATATACACACTAAACATAAAAAAAA [CACACA_site4185] | 7.81 ± 0.65
7 | AGTGACACCAAAGGGGTGCAATGAAATTAAAAATAT | 10.7 ± 0.24
8 | TTTATTCATTTCTAAAAATATTAAAATAGAATGAAT [CACACA_negctrl_site325] | 7.42 ± 0.45
9 | TAAAAAAAAATAAATGGTACACAATTAAATGTTTAT [XGTACX_site5255] | 7.7 ± 0.57
10 | ATAAGAAAATCAAAAAGTACTTTTTACAAAGATAAA [XGTACX_site824] | 7.79 ± 0.19
11 | ATATACTATATATAATGTACATATATATTATTATGC [XGTACX_site2957] | 7.72 ± 0.47
12 | ATTTTATGATATATTTGTACTTAACATTTGGATATA [XGTACX_site5888] | 7.8 ± 0.49
13 | TAGTTTTTTATATATTGTACAAATAATATATTATAT [XGTACX_site2564] | 7.91 ± 0.34
14 | AAAAAAAAAAAAAGAACATGCGACTTTAAGAACTGG [TGCATGCA_site792] | 7.82 ± 0.56
15 | TATGAAAATAAAATATGTACATATTTTAAATGTTAT [XGTACX_site7352] | 8.04 ± 0.37
16 | CAAATGTGTTCTTCAGGTACAGATACACATTTATGA [XGTACX_site2664] | 7.5 ± 0.57
17 | TAAAAAATTATATATTGTACGAATGCATAAAAAAAA [XGTACX_site4606] | 8.45 ± 0.59
18 | CACCATGTTAACAAAGCATGCATCTCTATAGTTTTA [TGCATGCA_site97] | 7.83 ± 0.71
19 | CCCAAAAAAAATTTATGTACTTATTAAATATATATA [XGTACX_site6455] | 8.1 ± 0.55

Row | Sequence | gcPBM binding intensity (ln)
20 | TTTATATAAATTTAAGTGCAAAATGAACAAGTGAAA | 10.1 ± 0.15
21 | AAAATATATATTTGTTGTACAATATTAATTATTAAA [XGTACX_site1612] | 7.83 ± 0.31
22 | TTCAATGCTAATTTATGTACATATGTATATAAAATA [XGTACX_site8335] | 7.59 ± 0.36
23 | TGCAAAGGTGAAAGAACACACAAAAAAAAAAAAAAA [CACACA_site4024] | 8.14 ± 0.64
24 | TTCAAAGGGAAATTAACACACACATATATATATATA [CACACA_site8777] | 9.44 ± 0.52
25 | TTTTTAATCTCATATGTATAATATATTTTTATTAAA [XGTACX_negctrl_site236] | 7.59 ± 0.48
26 | AATTTTAGATTTAGCACACATTTTTTTTTTTTTTTT [CACACA_site6105] | 8.69 ± 0.57
27 | TATGAAATTAGAATTACACACAGGAAAATAAAATGC [CACACA_site6822] | 8.12 ± 0.63
28 | TATATATATACCAACACACATACATATATATATATA [CACACA_site1795] | 9.24 ± 0.34
29 | TGAATAAATATATATACACACATATCTGTATTTATT [CACACA_site4991] | 7.52 ± 0.59
30 | AAATTTGGCAGACACACACACACACGCACACGCACA [CACACA_site6423] | 8.41 ± 0.51
31 | TATATATATTTAAAGGTGCAGATGCCAGTGTATATT | 9.63 ± 0.042
32 | AATGAACTCACGAGCACACACACACCGATATATATA [CACACA_site4710] | 8.29 ± 0.79
33 | ATAAATATATTTAAATGTACATAATATATATATATA [XGTACX_site5137] | 9.15 ± 0.48
34 | ACATATTCATATGGAAGTACGATAATGTAGTCATAT [XGTACX_site7080] | 7.75 ± 0.61
35 | ATATATACATACAAATTAATTACGAGGAATATATTA [XGTACX_negctrl_site417] | 7.67 ± 0.42
36 | GGAACTTATTTTTATACACACATATGTGCATATTAT [CACACA_site629] | 9.27 ± 0.27
37 | GTAAAAAAATTAAAAATTAACAAGGAATTAAGTATA [CACACA_negctrl_site1688] | 7.42 ± 0.61
38 | TATACATATATATACACACACACATATATATATATA [CACACA_site1299] | 9.16 ± 0.42

Row | Sequence | gcPBM binding intensity (ln)
39 | ATCATAAATATAGCAACACACGGATTACATAAAATA [CACACA_site2796] | 7.92 ± 0.49
40 | TTAAAAAAATAATTAACACACACATGTATATCTATA [CACACA_site9026] | 7.51 ± 0.5
41 | TTGTAATAAATAAAAGTGCAGATATGGTTCCACTAA [GTGCAC_site9942] | 9.36 ± 0.21
42 | TTTGCGTAGAAATGTGTGCACTGATATTTATAATAA [GTGCAC_site9526] | 10.6 ± 0.035
43 | ATTTTCCTTTTACCACGTACACATAAAAACGTTATA [XGTACX_site3595] | 8.31 ± 0.86
44 | TGAACTCATAGGAAAACACACATATGGGTAATATAT [CACACA_site187] | 7.9 ± 0.62
45 | AAAAAAAATCAAATGGGTACTTATTCTTAATAATAT [XGTACX_site3792] | 7.57 ± 0.57
46 | TATTAAATATTGTATACATGCAAATACTAGAAAATT [TGCATGCA_site370] | 9.15 ± 0.95
47 | AATAATATAAATATTACACACTAATTGTATTATAGA [CACACA_site6347] | 7.52 ± 0.41
48 | TATATAACCGAGTGCACACACAAAAAAAAAGTGAAC [CACACA_site6806] | 10.2 ± 0.49
49 | AGGAAACAAGAAATGAAGAATCATGTAGAAGGCCCA [GTGCAC_negctrl_site187] | 7.36 ± 0.65
50 | CACAGTGATATAAAAACACACATGAATTCTAATTTC [CACACA_site6884] | 7.56 ± 0.44
51 | AGGTATGTCTATAAATGTACATATGAGTTCAATTTC [XGTACX_site2244] | 7.79 ± 0.45
52 | AAATATATATAAACAAGTACATATTTAAAAAAAGGA [XGTACX_site2631] | 7.74 ± 0.49
53 | CATAAAAATATTAATAAACACACAATCAGATATTGA [CACACA_site9032] | 7.37 ± 0.6
54 | ATATATATGAAACACACACACAAAAAAAAAAAAAAA [CACACA_site3647] | 7.96 ± 0.75
55 | ATAACACAAAATTGTTGTACACGTGTTAATAAGTGA [XGTACX_site4452] | 8.19 ± 0.54
56 | AATATTTATATAAATGCATGCTGATACAACAGTCTT [TGCATGCA_site21] | 7.91 ± 0.83
57 | TAAAGTTATGCAATAACACACATATACAATACATAT [CACACA_site6698] | 7.99 ± 0.7
